Results reported in the supplement of paper PMC10126150.
Sequences with one replicate were seen in a single cluster, so their values are uncertain.

System: ATP
Test: switch fluorescence ratio, 500 uM ATP over buffer (Cy3 cluster intensity, sum of 5 cycles each) (fold (ratio)); higher = stronger signal-on switching upon ATP binding; sequences stand for … in TCGTCGGCAGCGTCAGATGTGTATAAGAGACAGTTTTTTTTTTTTTTTTTTTTTTTTT…TC
Details: aptamer strand: ATP DNA aptamer (quencher-CACCTGGGGGAGTATTGCGGAGGAAGG + anchor), 100 nM annealed; ATP concentration: 500 uM; one replicate
Summary of the method: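 Values give the fluorescence ratio for each switch-domain sequence, averaged from per-cluster ratios of summed target-cycle to summed buffer-cycle Cy3 intensity. The Cy3-labelled switching-strand clusters sat on a modified Illumina MiSeq flow-cell, were annealed to 100 nM quencher-labelled ATP aptamer, and were imaged in selection buffer, then after 15 min with 500 uM ATP at 22 °C. Five cycles ran with NaOH stripping and re-annealing between them, and clusters outside 100-1000 RFU were excluded.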
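Note: ATP exposure 15 min at 22 °C before imaging.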

Row | Sequence | switch fluorescence ratio
1 | GAGGCTTTGG | 1.05
2 | AGATGTAGCC | 0.982
3 | TAAGTGATTC | 1.02
4 | TCGCAGAAAT | 0.986
5 | CCAGGGTTCG | 1.12
6 | AGGTCACACA | 1.03
7 | CGGGGATCCA | 0.988
8 | CTGAGGACAC | 1.1
9 | GCTTAATA | 1.05
10 | CGTGGCTGGG | 0.978
11 | TGAGCTATGT | 1.17
12 | CTGATGGTAA | 1.06
13 | TGGTTATAT | 1.01
14 | GTTGCACGAT | 0.982
15 | ATACTGGGGG | 1.03
16 | CATTTCGTAT | 1.01
17 | TGTGTCATTT | 1.02
18 | TTTGAAACGG | 0.996
19 | TAAGTGACGA | 1
20 | GGCAAAAAGC | 0.986
21 | TTGAGCCAC | 1.29
22 | TAAAAACAAG | 1.02
23 | GAAAAACAGC | 1.02

Row | Sequence | switch fluorescence ratio
24 | GTTCCTTAGT | 0.946
25 | TCAAGCACA | 1.29
26 | TGGTGATATA | 1.01
27 | ACTACATCGG | 1.03
28 | TATGAAACTT | 1.02
29 | CGCTGAGGGT | 0.97
30 | TCGCTCGGGA | 1.03
31 | CTACGATTCG | 1.03
32 | GCTTCTCACT | 1.02
33 | ACACGGGATA | 1.09
34 | ACGCGGTATT | 1.02
35 | CTTGTCTAAA | 0.979
36 | TTACAGATCG | 1.06
37 | TCCCAGACGC | 1.22
38 | CGAAATGAGC | 1.03
39 | ATTTGCATA | 1
40 | AGTGGCTTGC | 0.985
41 | TAGGGTAGTC | 1.02
42 | CAATGCTGGG | 1.01
43 | ACCAAGGTAC | 1.59
44 | TTGTTCCCCT | 1.04
45 | AAACCACTGG | 1.06
46 | AATCCTAATA | 1.04

Row | Sequence | switch fluorescence ratio
47 | TGGATTTCGA | 1.03
48 | ATATGGTTTG | 0.967
49 | TCAGGAGAGG | 1.05
50 | GTGGAAGTCT | 1.06
51 | CTTAGTCCAG | 1.01
52 | TTAACTAATT | 1.06
53 | GAATGCCGCA | 1.05
54 | ACGAGATACG | 1.13
55 | TCATTATTGC | 1.09
56 | TCTCCTATTG | 1.02
57 | CACTTTTTAT | 1.01
58 | TAGCTGAATG | 0.996
59 | TTACACTTAC | 1.43
60 | ACATTATTGA | 1.02
61 | TTTTATAGC | 0.971
62 | GTAGGATAGG | 1
63 | GTTAGTTCTA | 0.964
64 | TTCATGATAT | 1.04
65 | AATCAGTCA | 0.99
66 | TGATCGGAAT | 1.12
67 | AAGCCAGAGT | 0.988
68 | CAGTCGTGTT | 0.977
69 | GGGCATCGT | 0.977

Row | Sequence | switch fluorescence ratio
70 | CTAAATCGG | 1.04
71 | GCGGCGCGGG | 1
72 | TGGTTGATA | 0.981
73 | TGTGTGTTGT | 0.998
74 | CGAATCCTCA | 0.998
75 | GCATCGTCTG | 1.01
76 | TATTTTGAC | 1
77 | ATTAGGGACA | 1.32
78 | AGGTACTCGT | 1
79 | ATTTCGACGC | 2.17
80 | CCACGTGTTT | 1.09
81 | AGATTTCCTT | 1.02
82 | ACTTTCTTAT | 1.02
83 | GAATTAGCT | 1.03
84 | GCTCGAGCTC | 1.04
85 | GTGCTCAAAT | 1.01
86 | ATGCAAGGGG | 1.03
87 | CAACCTATGA | 1.05
88 | ATTCCTTGAA | 1
89 | AGGGGCTCCC | 1.01
90 | GTGACAGCGA | 1.13
91 | CTGATTAGGT | 0.936
92 | AACATTTGGG | 0.993

Row | Sequence | switch fluorescence ratio
93 | ACAGAACACT | 1.11
94 | TATGACACTC | 1.01
95 | CCTACATGAG | 1.07
96 | TGCAGTTCCG | 0.977
97 | GAGAATTTTA | 0.995
98 | GTCGTTTAGT | 0.98
99 | GTTCAATACT | 2.06
100 | ACTCCACAAA | 3.63
101 | TTCTTTACTA | 1.31
102 | CTTGGTTCGT | 1.01
103 | GTTTAGATAC | 2.35
104 | AGTGATTTAC | 1.03
105 | AGCCCCTCTA | 1.06
106 | TATCCCACAG | 1.53
107 | AATACCAGGG | 1.17
108 | TTTCACTTTA | 0.985
109 | GCGGCCGGAT | 1.07
110 | GACGATCTAT | 0.994
111 | ATTGAGAGC | 1.04
112 | CTATCTACAA | 1.07
113 | ATACGATGCG | 0.961
114 | GCTGGTGCTA | 0.953
115 | GATGATGTTA | 0.934

Row | Sequence | switch fluorescence ratio
116 | TTATATGGTT | 0.99
117 | CGAGCAGCTG | 1.09
118 | GTAGGCTGCA | 0.945
119 | GCTCTTTTTC | 1.01
120 | TTTTAGGTCT | 1.04
121 | AGTCCTCTTT | 0.975
122 | TAAACGGATT | 1.02
123 | ACCAAGTTCG | 1.05
124 | ACGATTGATT | 1.01
125 | GCAGGTACGA | 1.15
126 | CATAACGTGC | 1.05
127 | TCAAGGCCTT | 1.01
128 | AGTTTGGAGA | 1.01
129 | CGGTTTTACA | 0.973
130 | CAGATGTAAG | 0.977
131 | TTCCTCAAGC | 1.06
132 | CCACGAGGCC | 0.882
133 | ACTTAAGCAC | 1.37
134 | GCGACAACCT | 1.93
135 | AAGAAGTTGA | 1.02
136 | TGAGCAAGTT | 1
137 | GGTCCCTTAA | 0.993
138 | AGACGTTGCT | 0.991

Row | Sequence | switch fluorescence ratio
139 | TAACATAGTG | 0.962
140 | TACGAGGTG | 1.04
141 | ACGGCGTATG | 0.996
142 | ATAATACGGA | 1.02
143 | CTCTTTGTGG | 0.975
144 | TATTGGTGTG | 0.98
145 | GCAGTGTGTT | 1.01
146 | AACTTGTCTC | 0.985
147 | CTCTTATTGT | 0.988
148 | GTCGGGGTG | 1.01
149 | GTTTCCTGCG | 1.38
150 | GGTTCTTGAT | 1.05
151 | CTTTCCGTTT | 1.02
152 | ATGGAATGGT | 0.955
153 | ATACGCAACT | 2.14
154 | TAGCACGCAT | 1.25
155 | TTGGCCTAGA | 1.01
156 | TCGAAGGGCA | 1.04
157 | CGGATGAATA | 1.01
